# From publication PMC4336329 (PLoS ONE, 2015)
# Out of some 310,000 compounds screened, about 14,000 (4.5%) showed an effect of 50% or more. Effects have a minus sign here. This is one part of the list.
# Target: human ether-à-go-go-related gene (hERG) potassium channel (human, UniProt Q12809)
# Assay: primary screen, population patch clamp on CHO cells stably expressing hERG
# 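Further: peak tail current of the secondary pulse compared with the same well before compound.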
# human ether-à-go-go-related gene (hERG) potassium channel, sequence (Q12809 whole entry, looked up): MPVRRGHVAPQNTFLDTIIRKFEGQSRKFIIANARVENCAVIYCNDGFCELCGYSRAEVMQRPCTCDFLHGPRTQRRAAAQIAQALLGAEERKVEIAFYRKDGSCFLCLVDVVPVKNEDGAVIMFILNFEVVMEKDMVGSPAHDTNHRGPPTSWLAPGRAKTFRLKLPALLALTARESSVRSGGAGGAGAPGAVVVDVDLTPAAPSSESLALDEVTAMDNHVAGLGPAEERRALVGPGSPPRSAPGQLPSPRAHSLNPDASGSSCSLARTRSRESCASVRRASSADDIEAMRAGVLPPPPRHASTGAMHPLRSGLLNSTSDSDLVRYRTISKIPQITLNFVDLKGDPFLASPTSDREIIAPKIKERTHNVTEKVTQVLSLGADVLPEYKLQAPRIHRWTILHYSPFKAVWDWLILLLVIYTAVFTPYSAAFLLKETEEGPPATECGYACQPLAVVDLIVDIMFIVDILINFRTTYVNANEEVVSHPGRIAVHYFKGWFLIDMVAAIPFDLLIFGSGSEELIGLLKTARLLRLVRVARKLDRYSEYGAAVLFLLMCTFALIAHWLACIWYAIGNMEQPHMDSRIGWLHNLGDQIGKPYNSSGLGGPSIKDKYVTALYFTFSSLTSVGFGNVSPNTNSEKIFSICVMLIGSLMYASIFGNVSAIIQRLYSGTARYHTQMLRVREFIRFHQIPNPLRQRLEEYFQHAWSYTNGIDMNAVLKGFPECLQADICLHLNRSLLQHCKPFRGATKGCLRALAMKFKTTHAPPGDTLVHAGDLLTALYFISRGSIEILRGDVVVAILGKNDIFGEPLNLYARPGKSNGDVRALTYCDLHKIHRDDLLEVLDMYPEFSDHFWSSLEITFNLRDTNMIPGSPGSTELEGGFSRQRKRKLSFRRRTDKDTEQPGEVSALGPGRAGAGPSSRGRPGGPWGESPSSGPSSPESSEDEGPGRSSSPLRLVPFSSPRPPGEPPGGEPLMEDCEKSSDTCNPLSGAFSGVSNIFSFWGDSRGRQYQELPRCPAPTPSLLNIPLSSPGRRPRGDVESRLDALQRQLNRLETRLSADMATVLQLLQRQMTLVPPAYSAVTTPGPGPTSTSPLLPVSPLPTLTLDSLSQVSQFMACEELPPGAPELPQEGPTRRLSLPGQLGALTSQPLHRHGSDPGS
row,SMILES,"hERG current change (%, negative = inhibition) at 10uM [%]"
1,CC(Nc1n[nH]c(=O)[nH]c1=O)C(=O)N/N=C/c1ccccc1 (stereo not drawn),1.27
2,O=C(NNC(=O)c1ccccc1F)c1cccs1,11.2
3,O=C(NCCc1cn2ccccc2n1)C1CCCCC1,-7.64
4,COc1ccc(OCC(=O)Nc2ccc3c(c2)nc(CN2CCN(C(C)=O)CC2)n3C)cc1.Cl,-25
5,CC(C)c1ccccc1NC(=O)COC(=O)c1cccnc1,12.9
6,CC1(C)CC(=O)C2=C(C1)N(c1ccccc1)C(N)=C(C#N)C2c1cccnc1 (stereo not drawn),-4.31
7,Cn1c(N)c(C#N)c2c(c1=S)COC(C)(C)C2,4.46
8,CC(=O)Nc1ccc(NC(=O)Cn2cc3c(n2)CCCC3)cc1,4.96
9,c1ccc(-c2nnc(SCC3CCCCO3)nc2-c2ccccc2)cc1 (stereo not drawn),12.2
10,O=C(NCC1CCCO1)c1ccc([N+](=O)[O-])s1 (stereo not drawn),25.4
11,COc1cccc(C(=O)OCC(=O)NCCCc2ccccc2)c1,-2.08
12,COc1ccc(CCNC(=O)C(=O)NCc2ccc(Cl)cc2)cc1OC,19
13,NS(=O)(=O)c1ccc(NC(=O)CSc2n[nH]c(=O)n2Cc2ccccc2)cc1,26.3
14,COc1cccc(C2=CC(c3ccccc3)n3ncnc3N2)c1 (stereo not drawn),-2.39
15,O=C(NN1CCCCC1)c1ccccc1,3.71
16,COc1ccc2c(c1)c(C(=O)N/N=C/c1ccccc1Cl)c(C)n2C,-4.06
17,CC(=O)N1CCc2c(sc(NC(=O)C3CC3)c2-c2nc3ccccc3s2)C1,6.41
18,O=C(CNC(=O)c1cccs1)NCC(=O)OCc1cccc(Cl)c1,-14.5
19,Cc1nc(-c2ccc(F)cc2)c(CC(=O)NCC(=O)Nc2ccc(F)c(F)c2)s1,-34.8
20,COc1ccc(S(=O)(=O)N2CCC(C(=O)NC3CCCC3)CC2)cc1OC,27.8
21,Cc1ccc(-n2c(=O)[nH]cc(C(=O)N3CCc4ccccc43)c2=O)cc1C,1.95
22,COC(=O)C1CN(C(=O)COc2ccc(Cl)cc2C)c2ccccc2O1 (stereo not drawn),13.2

row,SMILES,"hERG current change (%, negative = inhibition) at 10uM [%]"
1,O=S(=O)(c1cccc(C(F)(F)F)c1)N1CCN(C(=S)NC2CC2)CC1,5.84
2,Cc1[nH]nc2c1C(C1CC=CCC1)C(C#N)=C(N)O2 (stereo not drawn),5.88
3,Cc1ccc(-n2nc(-c3cccnc3)cc2C(=O)N2CCOCC2)c(C)c1,-14.4
4,Cc1ccc(NC(=S)/C(=C(\[O-])c2ccc(C)c([N+](=O)[O-])c2)[n+]2ccccc2)cc1C,-6.87
5,Cn1c(=O)c2c(nc(CN3CCOCC3)n2CCc2ccccc2)n(C)c1=O,7.53
6,CCn1cc(C(=O)NCCCN(C)C)c(=O)c2cc(F)c(N3CCN(C)CC3)cc21.Cl,9.27
7,CC(NCC(O)COCc1ccc(Cl)cc1)c1ccccc1.Cl (stereo not drawn),-43.1
8,COc1ccc(C(=O)NN2CCOCC2)cc1,-32.6
9,OCC[C@H]1C[C@H](O)[C@@H](O)[C@@]2(OCc3ccccc32)O1,8.35
10,CCOc1ccccc1OCCCOc1ccc([N+](=O)[O-])cc1Cl,15.6
11,Cn1cnnc1SC1c2cccc3cccc(c23)C1NS(=O)(=O)c1ccccc1 (stereo not drawn),-17.5
12,COc1ccc(Cn2nnnc2C(c2cc(OC)ccc2OC)N2CCC(C(N)=O)CC2)cc1 (stereo not drawn),-0.796
13,Br.CCCC1CC(C)(C(=O)CSc2n[nH]c(-c3ccccc3)n2)OC1=O (stereo not drawn),-30.3
14,COc1cc(OC)c(Cl)cc1N,7.89
15,CCC(=O)NC(C)C(c1cccs1)N1CCN(c2ccccc2)CC1 (stereo not drawn),5.24
16,CCc1cc2c(=O)n(Cc3ccco3)c(SCC(=O)NCC3CCCO3)nc2s1 (stereo not drawn),-70.2
17,CCCOc1ncnc2c1[nH]c1ccccc12,-11.8
18,CC(O)c1cccc(NC(=O)Nc2cccc(NC(=O)Nc3cccc(C(C)O)c3)c2)c1 (stereo not drawn),12.1
19,CC1CCc2sc(C(=O)NCCCn3ccnc3)cc2C1 (stereo not drawn),-1.07
20,O=C(Nc1ccccc1)c1nnn(Cc2ccccc2)c1NC(=O)C(F)(F)F,-7.45
21,COc1ccc(OC)c(N(CC(=O)NCCSCc2ccco2)S(=O)(=O)c2ccc(OC)c(OC)c2)c1,-22.6
22,O=C(Nc1cccc(Cl)c1)/C(=C\c1cccnc1)NC(=O)c1ccco1,-67

row,SMILES,"hERG current change (%, negative = inhibition) at 10uM [%]"
1,C=CCOc1ccc(/C=C2\N=C(C)OC2=O)cc1OC,28.8
2,COc1ccc(C(=O)CCC(=O)N2CCN(c3cccc(Cl)c3)CC2)cc1,-38.8
3,O=C(O)CSCC(=O)N1CCN(c2ccnc3cc(Cl)ccc23)CC1,9.15
4,N#Cc1ccccc1OCC(O)CS(=O)(=O)c1ccccc1 (stereo not drawn),1.8
5,COCCN(C(=O)CCc1nnc(CCc2c[nH]c3ccccc23)o1)C(C)C,12.5
6,Cc1cc(C)n(CC(C)NC(=O)CCc2nnc(CCc3ccccc3)o2)n1 (stereo not drawn),21.4
7,O=C(CC(c1ccccc1)c1ccccc1)Nc1ccc(C(=O)O)cc1,16
8,Cc1cc(C)cc(C(=O)N(NC(=O)Nc2ccc(Cl)cc2)C(C)(C)C)c1,7.26
9,CC(NC(=S)Nc1ccc(S(=O)(=O)N2CCOCC2)cc1)C1CC2CCC1C2 (stereo not drawn),14.7
10,COc1cc(S(=O)(=O)Nc2ccccc2C(=O)N2CCCCC2)ccc1NC(C)=O,-9.47
11,CC(=O)N1CCN(S(=O)(=O)c2ccc3c(c2)CC(=O)N3)CC1,-7.6
12,COc1ccc(NC(=O)c2nc(C)n(-c3ccc([N+](=O)[O-])cc3)n2)cc1,-44.9
13,COc1ccc(C(=O)CSc2ccc(-c3ccc(C)cc3)nn2)cc1,17.6
14,Cc1oc2cc3oc(=O)c(CCC(=O)N(C)CC(=O)O)c(C)c3cc2c1C,6.84
15,COCCNC(=O)C(c1ccc(C)cc1)N(C(=O)CCC(=O)Nc1ccccn1)c1ccccc1C (stereo not drawn),6.03
16,Cc1ccc(OCCn2ccnc2)c(C)c1,6.52
17,Cc1ccc(Cn2c(=O)n(CCC(=O)NCc3ccc4c(c3)OCO4)c(=O)c3ccccc32)cc1,-12.5
18,Cc1nc(C(=O)NCc2ccccc2)sc1C1(C)CC(c2cccc([N+](=O)[O-])c2)=NO1 (stereo not drawn),-31.4
19,CN(C)S(=O)(=O)c1cccc(NC(=O)c2cccc(NS(=O)(=O)c3ccccc3)c2)c1,20.1
20,CCOc1ccccc1C(=O)N/N=C/c1cccc2cccnc12,-0.673
21,CCOC(=O)c1c(NC(=O)CC2SC(=NC)N(C)C2=O)sc(C)c1C (stereo not drawn),-4.78
22,CCOC(=O)c1cc(-c2ccc(OC)cc2)nn1-c1ccc(C(=O)O)cc1,16.3

row,SMILES,"hERG current change (%, negative = inhibition) at 10uM [%]"
1,CC1=NN(C(=O)c2nn(C)cc2Br)C(O)(C(F)(F)F)C1 (stereo not drawn),10.3
2,CCCCN(Cc1ccccc1)S(=O)(=O)c1ccc2[nH]c(=O)oc2c1,5.06
3,CCCCn1c(O)c(C(C)=Nc2ccc(OCC)cc2)c(=O)[nH]c1=O,-13.9
4,CN(CC(=O)Nc1ccccc1C(F)(F)F)C(=O)c1cccc(-n2cccc2)c1,-14
5,O=C(COc1coc(CN2CCc3ccccc3C2)cc1=O)Nc1ccc(Cl)cc1,-1.22
6,CSc1nnc2c(n1)OC(c1cccn1C)N(C(C)=O)c1ccccc1-2 (stereo not drawn),-10.1
7,COc1ccc(NS(=O)(=O)c2cccc(C(=O)NCC(c3ccc(F)cc3)N3CCOCC3)c2)cc1 (stereo not drawn),-29
8,Cc1ccc(NC(=O)CCC(=O)OC(C(=O)c2ccc(C)c(C)c2)c2ccccc2)c(C)c1 (stereo not drawn),-3.71
9,Cc1ccccc1-n1c(=O)cc(N2CCN(C(=O)c3ccco3)CC2)[nH]c1=O,1.89
10,CCC(C)c1ccc(NC(=S)NCc2ccccn2)cc1 (stereo not drawn),-3.97
11,CC1=NNC(=O)C1Cc1ccc(F)cc1 (stereo not drawn),9.34
12,CCN(CCNC(=O)C1=C(C)C(=O)OC12CCC(C)CC2)c1ccccc1 (stereo not drawn),-2.08
13,COc1ccc(S(=O)(=O)NC2CC2)cc1-n1cnnn1,4.63
14,CCCCCc1ccc(CC(=O)N2CCOCC2)cc1,3.09
15,Cc1oc(-c2cc(F)ccc2F)nc1CN1CCCN(C(=O)c2ccco2)CC1,-36.6
16,CN(C)c1ccc(C=C2C(=O)OC3(CCCC3)OC2=O)cc1,40.2
17,O=c1onc(-c2ccc(Cl)cc2Cl)n1-c1cccnc1,-0.625
18,Cc1ccc(Cn2c(C3CCCN3c3nc(-c4ccc(F)cc4)cs3)nc3cc(Cl)c(Cl)cc32)cc1 (stereo not drawn),9.9
19,Cc1ccc(S(=O)(=O)N(C)C)cc1NC(=O)CN1C(=O)NC(Cc2c[nH]c3ccccc23)C1=O (stereo not drawn),5.59
20,Cc1[nH]c2ccccc2c1C(=O)C(=O)NC1CC(=O)N(c2ccc(F)cc2)C1 (stereo not drawn),-51.9
21,CCOC(=O)c1c(NC(=O)COC(=O)Cn2cnc3ccccc32)sc(C)c1C,13.5
